The text below walks through data of the RNAGym collection of RNA variant scans (doi:10.7554/elife.90254).

B1: OR4K15 (parent)
chain: GUUAACGGUCAUAGGCCAUGGAAACUAGGAGCACCAUUUCGCUGCCAGUGAAGAAAUGAACAAAGAAAAUCUGGGCCAGGCAGGCAUCAAAAGAAAUAGUCUUGCGCUCAACCAGAAAGUCUGUAAUCAUUUUAAGGGUA

The source gives no read counts; variants with many changes may rest on few reads.

This series covers variants of B1. Put plainly: self-cleavage, relative activity (ratio to wild type); higher = more cleavage; in vitro, sequencing; the parent is a self-cleaving ribozyme.
For C17U A63G A82G, the self-cleavage turned out to be 0.55.
On to C16A C40U A52G A116G, for which the self-cleavage stood at 0.87.
Turning to A18G A64U A92G A116G, the self-cleavage came to 1.06.
Regarding A18G A95G A135U, the self-cleavage amounted to 1.75.
For the variant G14A A23G U37C U43A A47G A68C A82G, the self-cleavage was found to be 0.55.
For the variant A18G A54G A82G U108A, the self-cleavage worked out at 0.
As to A18G A67G A94G, the self-cleavage came out at 1.84.
As for A13G U43A U87A A89U, the figure is 1.12; as for A18G A59G U132C, 2.39.
As for G15U G41A G74A, the figure is 0.21; as for A13G U49C A59G U72C A117G, 0.42.
For A13G U70C C107A A111U, the self-cleavage amounted to 0.04.
Turning to G15A A24G A54U A134G, the self-cleavage was found to be 1.75.
For the variant A18G U70C A94G U103C, the self-cleavage came to 0.81.
In the case of G14A A60G A68G A82U U130C, the self-cleavage came to 0.07.
Take A13U A68G A118G: the self-cleavage turned out to be 0.53.
In the case of A13U A54G A111U, the self-cleavage turned out to be 0.22.
On to A18G C45G U97C, for which the self-cleavage was 1.03.
As for A18G A67G A110G U131C, the figure is 0.26.
Take A18C A69G U70A: the self-cleavage was found to be 0.61.
Turning to A18G A54U A62U U100A A110G U130C, the self-cleavage was found to be 0.11.
For A13U U43A A63U A66G A117G U122A U132C, the self-cleavage stood at 1.7.
In the case of A18G A66U A98G C101A U124C, the self-cleavage is 0.01.
With A18G A47G A82U, the self-cleavage came out at 0.27.
With G14A U19C A33G U38A A126G, the self-cleavage is 1.25.
For A13U A24G U39C A51G the value was 1.89; for A13U A24G A60G A63G A96G G99A G119C, 0.34; for A18C U26C U43C, 1.33.
Take A13G U87C U120A: the self-cleavage is 0.51.
As for C16G A94G A116G, the figure is 0.47; as for A18G A67G U130C, 1.04; as for G14A A47U A114G, 0.14.
As to G14U A23C U97C U122C, the self-cleavage is 0.98.
On to G15A A54G A114U, for which the self-cleavage was 0.06.
As for A18G A47U U57C A62G A86G U103C, the self-cleavage came to 0.19.
For A18G U37C A62G A66U, the self-cleavage came out at 0.51.
In the case of A18G A33G A51G A116U U120C, the self-cleavage is 0.1.
Take A18G U72C A116U: the self-cleavage was 0.03.
Take A18G G29C U103C: the self-cleavage was found to be 2.08.
As to G15A A63G U87C A96G, the self-cleavage turned out to be 0.88.
Take A18G U57C U103C: the self-cleavage amounted to 0.13.
As for A13U A33G A67G, the figure is 0.93; as for C17U A23G U26C A47G A94G U124C, 0.61.
For A18G A30G A52G A68G A89G the value was 2.23.
For the variant A18G A23G A64C, the self-cleavage was 1.07.
Regarding A18G A23G A51G U72C, the self-cleavage came out at 0.16.
For A18G U87C A111G A125U, the self-cleavage stood at 0.01.
With A18G A116G U120C, the self-cleavage turned out to be 0.47.
In the case of A13U A51G U100C, the self-cleavage turned out to be 1.74.
In the case of G15U A64G U120C, the self-cleavage was found to be 1.42.
In the case of G14A A18U G58U A62G A94G, the self-cleavage is 0.83.
With G14U C45G A110U, the self-cleavage was found to be 1.55.
For the variant G14A A54G A59G A118G, the self-cleavage was 1.09.
As for C17A A22G A117G, the self-cleavage was 0.83.
Turning to G14C U37C A63U A92G A94G, the self-cleavage turned out to be 1.88.
Turning to A13U U37C A51G A118U, the self-cleavage turned out to be 0.42.
With A18G A56G U57C A95G U127C U139A, the self-cleavage was determined as 1.81.
With A18G A66G A94G, the self-cleavage was 0.88.
For A13G U49G U57C, the self-cleavage is 1.87.
Turning to A18G A67G U100A, the self-cleavage was found to be 0.59.
For G15A A22G A96G U100A U132A the value was 0.38.
With A13G U70A U122C G123C U124A, the self-cleavage was 0.19.
A18G U26A A63G: the self-cleavage was found to be 0.43.
For A18G A59G A125G, the self-cleavage is 0.73.
In the case of G15A A96G U97C C113A, the self-cleavage was determined as 0.
For A18G U100C A116G, the self-cleavage worked out at 0.88.
As for C16U A22G U72C A86G C105A A118G, the self-cleavage was determined as 0.
As for G15A U72A A114G, the figure is 0.08.
For A18G A23G A56G A68G the value was 0.96; for G15A U19C U49A U87C A135G, 1.28.
Turning to C16U U19C A56G A116G, the self-cleavage worked out at 1.24.
Take A18C A54U A91G A135G: the self-cleavage worked out at 1.43.
Consider G15A A30G A86G A90G A114G, for which the self-cleavage is 0.2.
In the case of G15U A18G U122C, the self-cleavage came out at 1.34.
Regarding A18G G44U A78U A117G, the self-cleavage is 0.53.
Turning to C16U A23G A52U, the self-cleavage came to 0.18.
Regarding A18G A63G A67G A91G U108C, the self-cleavage was determined as 0.07.
In the case of A13U A22G A24G A67G U87C U130C, the self-cleavage was 0.72.
As to A13U A95G U124G, the self-cleavage came out at 2.11.
Regarding A18G A82G A91G A92G, the self-cleavage is 0.46.
Take A18G A63G U130C: the self-cleavage was determined as 2.05.
Take A13U A47G G73U U103C A117G: the self-cleavage is 0.05.
For G14A U72C C112U the value was 0; for A18G A66G A111G A118G, 0.01; for G14A U49C A114G, 0.21.
Turning to G15A U37C A92G A126G, the self-cleavage came out at 0.39.
Take A13U A92G U130C: the self-cleavage was determined as 1.27.
In the case of G14A A22G U37G A54G A89G A95G, the self-cleavage worked out at 1.04.
With A18G A69G A96G, the self-cleavage came to 0.45.
As to A18C A60G A63G A78C A94G A117G, the self-cleavage was determined as 0.11.
On to A18G A86G G123A, for which the self-cleavage was found to be 1.81.
For the variant A18G A23G U49C A86G A118U, the self-cleavage worked out at 0.29.
Take G15C A67U U131C: the self-cleavage turned out to be 1.32.
As for A18C U49A A66G, the self-cleavage stood at 0.94.
Take C17U A33G U49A U72G: the self-cleavage was determined as 0.12.
For C16U U19C A60G the value was 2.08; for A18G A54G A78U A86G U127C, 0.11; for G14C U37C A82G U130C U131C, 0.31.
As to A18G A96G A129G, the self-cleavage was determined as 0.81.
Consider A18G A94G C107A A126G, for which the self-cleavage stood at 0.01.
With A18G U43C A89G, the self-cleavage came out at 1.58.
A13U A36U U70C: the self-cleavage was 0.76.
With A18G U19C U57C U124C, the self-cleavage came to 0.63.
Take C16U A47G A90G U124C: the self-cleavage came out at 0.51.
For A18G A33G A55G U108C the value was 0.03.
As to G15A U39C A129G, the self-cleavage was 1.73.
Turning to A18G U43C A95C, the self-cleavage worked out at 0.36.
On to G15A A47G A86G C109U, for which the self-cleavage was found to be 0.08.
On to C16A C85U C109A, for which the self-cleavage was found to be 0.16.
In the case of A18G U70C A89G, the self-cleavage was found to be 0.62.
For the variant A13G U49A U87C A92G U132C, the self-cleavage was 1.03.
Regarding A13U C35U A111G, the self-cleavage stood at 0.01.
On to A18G U19A A94G A114U, for which the self-cleavage was 0.07.
In the case of A18G U19C U102C, the self-cleavage turned out to be 1.17.
In the case of G15A A51U U103C, the self-cleavage came to 0.17.
As for C17U U37G U39C, the figure is 0.76; as for A18G A24G U38C A52G A78U A140U, 1.03.
Turning to A18G A64G U70C, the self-cleavage is 0.61.
For the variant G15A A78C A90G U124C, the self-cleavage was 0.1.
For the variant A18G A62G U108C, the self-cleavage turned out to be 0.01.
In the case of A18G A22G U122A, the self-cleavage was found to be 1.31.
As for A18G A55G A118G, the self-cleavage stood at 1.25.
Consider A13U A24G A63G A90G G106A U122A, for which the self-cleavage was 0.
Consider A18C U49C A82G, for which the self-cleavage came to 0.48.
For C16A G84A A98G A114U, the self-cleavage stood at 0.05.
On to A18G U43C U108C, for which the self-cleavage was 0.01.
A18G A30G A90G U124A U131C: the self-cleavage stood at 0.65.
Turning to G14A U26C U37C A59C, the self-cleavage is 1.23.
A18G A62G A125G: the self-cleavage stood at 0.44.
As for A18G A52G A91G, the figure is 1.37; as for G14A A96G U103A, 0.85.
For the variant G14A A60G G93U, the self-cleavage came to 1.47.
For C17U U38C U49C A66U A68G A78U U97G the value was 0.12; for G14A A18U A22G, 1.5; for A18G A78U A126G, 0.17.
Consider A18G U37A U87C, for which the self-cleavage is 1.11.
As for C16U G83A U122C, the figure is 0.97; as for A18G A22G U108A A117G, 0; as for A18G A54U A91G, 1.68.
In the case of A18G A54U A56G C85A, the self-cleavage turned out to be 0.47.
As for A18G A47U A78U U127C, the self-cleavage was 0.19.
As for A13U A24G A91C A95G A111G, the figure is 0.03; as for A13U U57A A63G A117U, 0.12.
As for A18G A117G U131C, the figure is 1.34; as for A18C A54G A116C, 0.09; as for A18G A69G A96G A118G U131C, 0.72.
In the case of A13U A86G A90G, the self-cleavage came to 0.58.
Consider A18G A94C A118G U124A, for which the self-cleavage amounted to 0.74.
With A18G U37C A52G A94G, the self-cleavage is 1.64.
On to G15A A56G U72A, for which the self-cleavage worked out at 0.18.
Take A18G U49A U102A: the self-cleavage is 0.57.
As for G15A A24G A67G, the self-cleavage turned out to be 1.79.
On to A13U A18C A60G U97A A135U, for which the self-cleavage turned out to be 0.62.
For A18G A30U U122C the value was 1.21; for A18G A63G A64G, 1.04.
For C17U U49G A55G A56G, the self-cleavage was determined as 0.86.
As for A18G A52U A63G, the figure is 1.87; as for A18G C32A A94G, 1.01.
As for A13U A24G U26C U38C U72C A82U, the figure is 0.48; as for A13G U72C U124G, 0.18; as for A18G A27G A63G A114G A117G, 1.02.
For A18G A114G A118U the value was 0.08; for C17A A23G A51G A82G U133C, 0.72.
Take A18G U49C U108A: the self-cleavage came out at 0.02.
As for A18G A52G A63G U131A, the figure is 0.41; as for G14A A52G U87C A96G, 0.62; as for A18G U37C A66G A78U A96G, 0.18.
